According to PubChem BioAssay AID1645882 (National Center for Advancing Translational Sciences (NCATS), 2021):
The campaign covered roughly 16,000 compounds. About 120 (0.75%) were called active. Inconclusive results (about 4%) are left out. Calls follow the shape of the dose curve; as a rule, active = well fitted inhibition curve with a large enough effect; inconclusive = small, poorly fitted or top-dose-only effect; inactive = no such curve, though single readings can be large or run the other way. Some of the results follow. Where a SMILES comes first, the peptide text is derived from it.

Each compound was assayed against Rap guanine nucleotide exchange factor 3 (Homo sapiens) (UniProt O95398) (assay: Validation qHTS for antagonist of cAMP-regulated guanine nucleotide exchange factor 3 (EPAC1)). Conditions: EPAC1 Rap1B-BODIPY-GDP exchange, fluorescence; activity change, negative = inhibition: at the top concentration.
Summary of the method: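 EPAC1 (100 nM) mixed with 250 nM RAP1B-BODIPY-GDP and 50 uM GDP; compounds in concentration series, 5 min at room temperature. Fluorescence (ex 480/em 540 nm) read every 5 min for 30 min; normalized to ATA control and DMSO.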
Also: nearly all actives have a fitted effect of over 75% in size.
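For activity change, negative = inhibition in this document: plate controls were DMSO for no effect and ATA control for full effect.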
Potency is read from the fitted curve at half-maximal effect.

UniProt O95398, sequence (O95398 whole entry, looked up): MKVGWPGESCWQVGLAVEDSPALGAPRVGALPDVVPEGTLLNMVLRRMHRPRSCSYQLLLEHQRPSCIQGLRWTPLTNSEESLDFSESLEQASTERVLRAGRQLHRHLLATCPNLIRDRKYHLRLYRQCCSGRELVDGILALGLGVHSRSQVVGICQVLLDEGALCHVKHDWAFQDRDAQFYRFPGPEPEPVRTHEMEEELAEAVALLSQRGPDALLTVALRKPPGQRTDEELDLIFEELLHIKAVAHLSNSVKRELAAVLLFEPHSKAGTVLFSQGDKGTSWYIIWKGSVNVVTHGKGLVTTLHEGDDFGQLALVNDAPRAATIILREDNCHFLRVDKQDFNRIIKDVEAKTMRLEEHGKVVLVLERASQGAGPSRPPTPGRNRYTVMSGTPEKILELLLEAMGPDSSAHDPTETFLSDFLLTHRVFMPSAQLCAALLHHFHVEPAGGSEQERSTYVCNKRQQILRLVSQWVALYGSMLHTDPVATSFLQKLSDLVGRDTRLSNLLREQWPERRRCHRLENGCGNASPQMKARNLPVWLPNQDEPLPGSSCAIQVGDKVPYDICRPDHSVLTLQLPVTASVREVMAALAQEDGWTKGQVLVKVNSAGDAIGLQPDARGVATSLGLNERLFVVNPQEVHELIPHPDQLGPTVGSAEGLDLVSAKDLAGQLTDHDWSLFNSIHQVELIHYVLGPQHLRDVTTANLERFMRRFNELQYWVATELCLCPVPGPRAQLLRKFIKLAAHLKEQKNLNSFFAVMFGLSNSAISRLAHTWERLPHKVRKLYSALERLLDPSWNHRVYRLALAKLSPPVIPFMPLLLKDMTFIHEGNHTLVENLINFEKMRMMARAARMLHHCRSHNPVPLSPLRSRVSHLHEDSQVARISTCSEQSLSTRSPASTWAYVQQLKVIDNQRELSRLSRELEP

| Structure (SMILES) | activity change, negative = inhibition | Potency |
| --- | --- | --- |
| CN1CCC(=O)N(CCN=[N+]=[N-])CC1 | inactive: 12.5% | – |
| CC(=O)OC1CC(OC(C)=O)[C@]2(C)C(CC(OC(C)=O)[C@]3(C)C2CC[C@@]2(C)C(c4ccoc4)C[C@H]4O[C@]432)C1(C)C (stereo partly drawn) | inactive: 7.6% | – |
| O=C1CC[C@@]2(O)[C@H]3Cc4ccc(O)c5c4[C@@]2(CCN3CC2CC2)[C@@H]1O5 | inactive: 7.28% | – |
| CC(C)[C@@]1(NC(=O)[C@@H]2C[C@H]3c4cccc5[nH]cc(c45)C[C@@H]3N(C)C2)O[C@@]2(O)[C@H]3CCCN3C(=O)[C@H](Cc3ccccc3)N2C1=O | inactive | – |
| COc1ccn(C)c(=O)c1C#N | inactive: -6.35% | – |
| CC(CO)NC(=O)C1C=C2c3cccc4[nH]cc(c34)C[C@H]2N(C)C1 (stereo partly drawn) | inactive: 16% | – |
| Clc1ccccc1Cl | inactive: 10.2% | – |
| O=C(O)c1cc(Oc2ccc(C(F)(F)F)cc2Cl)ccc1[N+](=O)[O-] | inactive: 12.7% | – |
| Cc1ncc2n1-c1ccc(Cl)cc1C(c1ccccc1F)=NC2 | inactive: 20% | – |
| C[N+](C)(C)CC#CCN1CCCC1=O | inactive | – |
| CCOC(=O)CN1C(=O)CC(C[C@@H](O)C2C[C@@H](C)C[C@H](C)C2=O)CC1=O (stereo partly drawn) | inactive: 4.09% [at 201 µM] | – |
| Nc1ccc(Sc2ccc(N)cc2)cc1 | inactive: 15.8% [at 320 µM] | – |
| NNCc1ccccc1 | inactive: 4.52% | – |
| NC(=O)c1ccc(OCC(O)CN2CC=C(c3ccc(F)cc3)CC2)cc1 (stereo not drawn) | inactive: -2.16% [at 75.8 µM] | – |
| CC(C)=CC1C(C(=O)OCc2cccc(Oc3ccccc3)c2)C1(C)C (stereo not drawn) | inactive: 9.26% | – |
| CC[C@]1(O)CC(O[C@@H]2CC(N(C)C)C(O)C(C)O2)c2c(cc3c(c2O)C(=O)c2c(O)ccc(O)c2C3=O)C1C(=O)OC (stereo partly drawn) | inactive: 22.5% | – |
| COc1ccc(CNC(=O)/C=C/c2ccc3[nH]cc(CCN(C)C)c3c2)cc1 | inactive: -0.353% [at 75.8 µM] | – |
| COC1C(O)C(C)O[C@H](OC2CC[C@@]3(C=O)C4CC[C@]5(C)C(C6=CC(=O)OC6)CC[C@@]5(O)C4CC[C@@H]3C2)C1O (stereo partly drawn) | inactive: -2.7% | – |
| C[C@]12[C@H](O)CC3C(CC[C@@H]4C[C@@H](O)CC[C@]34C)[C@@]1(O)CC[C@@H]2C1=CC(=O)OC1 (stereo partly drawn) | inactive: 10.4% | – |
| CO/C=C(/C(=O)OC)c1ccccc1Oc1cc(Oc2ccccc2C#N)ncn1 | inactive: 16.3% [at 320 µM] | – |
| CC[C@]1(O)CC(O[C@@H]2CC(N(C)C)C(O)C(C)O2)c2c(cc3c(c2O)C(=O)c2c(O)cccc2C3=O)C1C(=O)OC (stereo partly drawn) | inactive: 2.61% | – |

| Structure (SMILES) | activity change, negative = inhibition | Potency |
| --- | --- | --- |
| CN=C1CN(O)C(c2ccccc2)=c2cc(Cl)ccc2=N1 | inactive | – |
| COc1ccccc1CN1CCCC2(CCN(C(=O)Oc3ccccc3)CC2)C1 | inactive: 15.5% | – |
| Nc1ccncc1 | inactive | – |
| CC[C@H](C)[C@H](NC(=O)[C@H](CCCN=C(N)N)NC(=O)[C@H](CCCN=C(N)N)NC(=O)[C@H](CC(C)C)NC(=O)[C@H](Cc1ccccc1)NC(=O)CNC(=O)CNC(=O)[C@@H](N)Cc1ccc(O)cc1)C(=O)N[C@@H](CCCN=C(N)N)C(=O)N1CCC[C@H]1C(=O)N[C@@H](CCCCN)C(=O)N[C@@H](CC(C)C)C(=O)N[C@@H](CCCCN)C(=O)O | inactive: 11.5% [at 15.3 µM] | – |
| C[N+]1(CCF)[C@@H]2CC[C@H]1CC(OC(=O)C(O)(c1ccccc1)c1ccccc1)C2 (stereo partly drawn) | inactive: 11.3% | – |
| NC1(c2ccccc2)CCCCC1 | inactive: 11.5% [at 320 µM] | – |
| O=C(O)CNCP(=O)(O)O | inactive: 13.1% | – |
| C[N+]1(C)CCOC(O)(c2ccc(-c3ccc(C4(O)C[N+](C)(C)CCO4)cc3)cc2)C1 (stereo not drawn) | inactive | – |
| O=C1CC[C@@]2(O)C3Cc4ccc(O)c5c4C2(CCN3CC2CC2)[C@H]1O5 (stereo partly drawn) | inactive: 2.27% [at 75.8 µM] | – |
| c1csc(CN2CCCC3(CCNCC3)C2)n1 | inactive: 13% | – |
| CCN1C[C@]2(COC)CC[C@H](OC)[C@@]34C5C[C@@H]6[C@@H](OC)C[C@@]7(OCO[C@@]7([C@@H](O)C23)[C@@H]14)C5[C@H]6OC (stereo partly drawn) | inactive: 19.9% | – |
| CN(C)Cc1c[nH]c2ccccc12 | inactive | – |
| c1cncc(C2CCCCN2)c1 (stereo not drawn) | inactive | – |
| CC(N)Cc1ccc2c(c1)OCO2 (stereo not drawn) | inactive: -7.15% | – |
| CO[C@H]1CC=C2CCN3CCC4=C(CC(=O)OC4)[C@]23C1 | inactive | – |
| c1cc(CN2CCCC3(CCNCC3)C2)ccn1 | inactive: 9.4% | – |
| COc1cc(C2c3cc4c(cc3C(OC(C)=O)[C@H]3COC(=O)C23)OCO4)cc(OC)c1OC (stereo partly drawn) | inactive | – |
| N[C@]1(C(=O)O)CC[C@@H](C(=O)O)C1 (racemic) | inactive | – |
| COc1cc2c(cc1OC)-c1c(OC)c(OC)c(CO)c3c1C(C2)N(C)CC3 (stereo not drawn) | inactive: -16.7% | – |
| Cl.Cl.Cl.Cl.Cl.Cl.N.N.N.N.NNNNN.NNNNN.O.O.[Ru].[Ru].[Ru] | – | active: 89.1 µM |
| CN1CCCCC1c1cccnc1 (stereo not drawn) | inactive: 11.2% | – |

| Structure (SMILES) | activity change, negative = inhibition | Potency |
| --- | --- | --- |
| C[C@]12CC[C@@H]3[C@@H](CCC4=CC(=O)CC[C@@H]43)[C@@H]1CC[C@@H]2OC(=O)CCc1ccccc1 | inactive: 6.52% | – |
| C=CCN1CCc2cccc3c2C1Cc1ccc(O)c(O)c1-3 (stereo not drawn) | inactive: -4.7% | – |
| CN1C2CC(OC(=O)C(CO)c3ccccc3)CC1C(O)C2 (stereo not drawn) | inactive: 11% | – |
| CC[C@@H](CO)NC(=O)[C@H]1C=C2c3cccc4[nH]cc(c34)C[C@H]2N(C)C1 | inactive: 4.25% | – |
| COc1ccc(OC)c(CC(C)N)c1 (stereo not drawn) | inactive: 23% [at 320 µM] | – |
| CC(C(=O)OC1CC2CCC(C1)N2C)c1ccc(Br)cc1 (stereo not drawn) | inactive: 11.5% | – |
| O=C1CCCC2C3CC(CN12)C1CCCCN1C3 (stereo not drawn) | inactive: -3.72% | – |
| N[C@H](C(=O)O)c1cc(=O)[nH]o1 | inactive: -2.88% | – |
| CCCCCl | inactive: 3.8% | – |
| COC(=O)[C@]1(C)CC[C@@]2(C)CC[C@@]3(C)C4=CCc5c(cc(O)c(O)c5C)[C@]4(C)CC[C@@]3(C)C2C1 (stereo partly drawn) | inactive: -8.3% | – |
| CN1C(=S)CN=C(c2ccccc2)c2cc(Cl)ccc21 | inactive: 1.8% | – |
| NC(=O)[C@@H]1CCCN1C(=O)[C@H](Cc1ccccc1)NC(=O)[C@@H]1CCCN1C(=O)[C@@H](N)Cc1ccc(O)cc1 (H-YPFP-NH2) | inactive: 22.3% [at 15.3 µM] | – |
| COc1ccc(C(=O)N2CCCC2=O)cc1 | inactive | – |
| CC(N)[C@H](O)c1ccccc1 (stereo partly drawn) | inactive: 22.5% | – |
| C=CCN1CCc2cccc3c2[C@H]1Cc1ccc(O)c(O)c1-3 | inactive: 7.8% [at 75.8 µM] | – |
| Cc1[nH]c2ccc(O)cc2c1CCN | inactive | – |
| COc1nc(NC(C)C)nc(NC(C)C)n1 | inactive: -3.88% | – |
| O=C(c1ccncc1)N1CCC[C@@]2(CCN(Cc3nccs3)C2)C1 | inactive: 12.9% | – |
| COc1cccc(C(=O)CCN[C@@H](C)[C@H](O)c2ccccc2)c1 | inactive: 27.4% | – |
| C#CCOC(C(=O)OCCN(C)C)(c1ccccc1)c1ccccc1 | inactive: 12.6% | – |
| CCC1(c2ccccc2)C(=O)NC(=O)N(C(=O)c2ccccc2)C1=O (stereo not drawn) | inactive: 3.79% | – |
